# Assay results taken from ChEMBL document CHEMBL4888484, “Replenishing the malaria drug discovery pipeline: Screening and hit evaluation of the MMV Hit Generation Library 1 (HGL1) against asexual blood stage Plasmodium falciparum ,using a nano luciferase reporter read-out” (2022).
# The campaign covered roughly 150,000 compounds. About 540 (0.36%) showed an effect of 50% or more. This is one part of the list.
# Test system: Plasmodium falciparum
# Assay: Primary screen in NF54 nanoGlo assay, in single point, at 2uM, 72h; a lower Z score goes with more inhibition
# Assay type: functional, Erythrocyte
# Conditions: timepoint 72 hour
SMILES,% Inhibition [%],Z score
Cc1noc(C)c1CCC(=O)Nc1ccc(OC[C@H]2CCCCO2)cc1,-12,2.02
COCCn1ccc2c(OCC(=O)Nc3ccc(N4CCN(CCO)CC4)cc3)cccc21,8,-1
CC1=NO[C@H](C(=O)N2CCC3(CCC(=O)N(CCc4ccncc4)C3)CC2)C1,6,-1.28
COc1cccc([C@H](C)N(C)Cc2cccc(-c3nc(C)c(F)c(=O)[nH]3)c2)c1,-9,1.33
CN(C(=O)C1CCCC(C(F)(F)F)C1)c1ccc(S(C)(=O)=O)cc1 (stereo unspecified),-3,0.28
C=CCN1CCN(Cc2cc(=O)[nH]c(-c3ccccc3)n2)CC1,-11,1.9
CCCc1nc(CN2C(=O)C3CC=CCC3C2=O)no1 (stereo unspecified),-7,0.97
Clc1cccc(OCCOc2ccc3ncccc3c2)c1,-2,0.27
Cc1noc(C2CCN(C(=O)c3csc4c3CCCC4)CC2)n1,-3,0.44
CC(=O)N1CC(C)Oc2ccc(S(=O)(=O)NC(CC(=O)O)c3ccc(C)cc3C)cc21 (stereo unspecified),-9,1.33
COc1cc(CC(=O)N2CCN(c3cc(C(C)C)n4cnnc4n3)CC2)cc(OC)c1,-6,0.76
COc1ccccc1NC(=O)[C@H](Cc1ccccc1)NS(=O)(=O)c1ccc2c(c1)c(=O)n(C)c(=O)n2C,-1,0.08
c1ccc2sc(NC[C@H]3CN(c4nncs4)CCO3)nc2c1,-63,7.35
Cc1cnc(C(=O)Nc2ccc3c(C)n[nH]c3c2)cn1,0,-0.05
O=C(NC1CC1)c1ccccc1NC(=O)C1CCN(S(=O)(=O)c2ccc(Cl)cc2)CC1,-4,0.67
O[C@]1(c2ccc(Cl)cc2Cl)CN2C=CC=CC2=[N+]1Cc1ccccc1,7,-1.16
Cc1cnc(CCNC(=O)c2ccncc2)n1C1CC1,-10,1.86
Cn1cc(CNC(=O)C2CC2c2cccc(Cl)c2Cl)cn1 (stereo unspecified),2,-0.34
CCc1nc(C)c(CC(=O)N2CCC(c3n[nH]c(=O)n3CC)CC2)c(=O)[nH]1,17,-2.11
Cc1nn(-c2ncccn2)c2c1[C@@H](c1ccc(F)cc1F)CC(=O)N2,-1,0.13
CNS(=O)(=O)c1cc(Br)c(C)cc1C,4,-0.72
COCCNC(=O)c1cn(C2CCN(C(=O)c3c(-c4ccccc4)noc3C)CC2)nn1,-1,0.15
O=C(Cn1cc(C(=O)c2ccncc2)c(=O)c2ccc(F)cc21)Nc1ccccc1Cl,-3,0.35
C[C@@H](Cn1cccn1)NCc1csc(CC(=O)N(C)C)n1,-1,0.16
CC(C)(C)CN1CC[C@H](C2CCN(C(=O)c3csnn3)CC2)C1,-8,1.11
O=c1c2cnn(-c3ccccc3)c2nnn1Cc1cccc2cccnc12,-16,1.79
O=C(c1ccsc1)N1CC(N2C(=O)CCC2=O)C1,-3,0.39

SMILES,% Inhibition [%],Z score
Cc1cc(C(=O)Nc2nnc(Cc3cccc(F)c3)s2)c2c(C)n[nH]c2n1,-2,0.24
COc1ccc(CN2C(C(=O)O)CC[C@H]2c2ccccc2)cc1 (stereo partly specified),-2,0.35
CC(C)c1nnc(CN2CCC([C@]3(C)NC(=O)NC3=O)CC2)s1,-5,0.69
Fc1cc(CNCc2ccc(N3CCCCC3)nc2)cc(F)c1F,1,-0.15
CCCc1nccn1-c1cncc(N)c1,-11,1.73
COc1ccccc1-c1nnc2c3ccc(Cl)cc3nc(N3CCN(C(=O)c4c(F)cccc4F)CC3)n12,-2,0.31
Cc1cccc(N2CCN(C(=O)C[C@@H]3NC(=O)NC3=O)CC2)c1C,-9,1.46
Fc1cccc2oc(N3CCCO3)nc12,-2,0.46
Cc1nc(CCCNC(=O)c2n[nH]c3c2CCC3)sc1C,-2,0.28
O=C(NCc1ccc(F)cc1F)c1[nH]nnc1-c1ccc(F)cc1,-14,2.69
O=C(c1csc(-c2ccco2)n1)N(Cc1ccccn1)c1ccc(F)cc1,-8,1.09
CO[C@H]1CCOC[C@@H]1NC(=O)c1coc(-c2ccccc2Cl)n1,-11,2.01
CS(=O)(=O)N1CCC(C(=O)OC2CN(c3nc4ccccc4s3)C2)CC1,-1,0.16
Cc1cc2c3c([nH]c2cc1S(=O)(=O)N1CCN(c2ccccc2)CC1)CC(C)(C)CC3=O,-14,2.74
CCn1cc(-c2c(-c3ccccc3)ncn2Cc2ccc3nonc3c2)c(C)n1,-9,1.82
CCCCc1cc(C[C@H]2CNCC[C@H]2CC(=O)N(CC)CC)no1,10,-1.29
Cc1nccn1CCN(C)[C@@H](C(=O)O)c1ccc(C(C)(C)C)cc1,-14,1.99
Cn1cc(-c2csc(-c3ccoc3)n2)cn1,-14,2.59
CC(C)(C)[C@H]1CCCN(CCCS(C)(=O)=O)CC1,-11,2.14
O=C(c1nc2cccnc2s1)N1CCN(c2cccs2)C(=O)C1,-15,2.34
CC(C)COc1ccc(C(C)(C)C(N)=O)cc1,-3,0.49
CNC(=O)[C@@]12CCOC[C@@H]1CN(C(=O)NCCc1cccc(O)c1)C2,-9,0.92
O=C(CN1Cc2ccccc2OC(c2ccccc2F)C1)N1CCCC1c1nc2cc(F)ccc2[nH]1 (stereo unspecified),4,-0.66
CCCc1cc(CNc2nc(N)nc3c2CCCC3)on1,-2,0.23
O=C(NCc1ccc(CO)cc1)[C@]1(c2ccccc2)CCCO1,-4,0.85
CCn1cc(CN2C[C@H](C(=O)O)[C@@H](c3ccccc3C)C2)cn1,-5,0.77
